Screen size: about 150,000 compounds; about 540 (0.36%) showed an effect of 50% or more. The list shows a part of the results.

The subject of the assay is Plasmodium falciparum. The assay is described as follows: Primary screen in NF54 nanoGlo assay, in single point, at 2uM, 72h; a lower Z score goes with more inhibition. It counts as functional, Erythrocyte. As to conditions: timepoint 72 hour.
As usually defined, the % Inhibition is the drop in the measured response relative to a control, in per cent. With `Cc1ccc2c(c1)N(Cc1cnn([C@H]3CCS(=O)(=O)C3)c1)CC2`, the “% Inhibition” value is reported as 3% and the Z score is given as -0.46.

As to `Cc1cc(C)cc(Nc2c3c4c(cccc4n(C)c2=O)C(=O)c2ccccc2-3)c1`, the “% Inhibition” value was found to be 3% and the Z score is recorded as -0.65.

In the case of `C[C@@H](CN(C)C(=O)c1cccc(-c2ccc(F)cn2)c1)N1CCOCC1`, the “% Inhibition” value is given as -11% and the Z score is reported as 1.46.

For the molecule `Cn1cnc2c(C(=O)N3Cc4ncccc4N4CCC[C@H]4C3)ccnc21`, the “% Inhibition” value is on record as -15% and the Z score worked out at 1.65.

Consider `Cc1oc(-c2ccccc2Cl)nc1CN(C)C1CCOCC1`, for which the “% Inhibition” value was -7% and the Z score is 1.41.

For the molecule `O=C(NCCc1ccccc1F)C(=O)NCc1ccco1`, the “% Inhibition” value is given as -19% and the Z score is recorded as 2.4.

`CC(C)n1cc(C(=O)N(C)Cc2nccn2C)cn1`: the “% Inhibition” value stood at 3% and the Z score is given as -0.49.

Consider `CCN1CCN(C(=O)c2cn3c(n2)CC[C@H](c2cc(C(F)(F)F)cc(C(F)(F)F)c2)C3)CC1`, for which the “% Inhibition” value was 4% and the Z score is reported as -0.56.

Regarding `Cc1n[nH]c(=O)nc1NCCc1csc(-c2ccccc2)n1`, the “% Inhibition” value was -4% and the Z score is 0.52.

Turning to `O=C1CCCN1c1ccc(S(=O)(=O)N2CCC(c3nc4cc(Cl)ccc4o3)CC2)cc1`, the “% Inhibition” value is reported as -8% and the Z score is 1.61.

With `COc1ccc(CCC(=O)N2CCCN(C(=O)CC(C)C)CC2)cc1`, the “% Inhibition” value is -7% and the Z score stood at 0.86.

On to `CN(Cc1cc(C2CC2)on1)C(=O)NCc1cccc(Cl)c1F`, for which the “% Inhibition” value is listed as -5% and the Z score is 0.66.

As for `Cc1nc2c(c(N3CCN(CCOCCO)CC3)n1)CNC2`, the “% Inhibition” value was -10% and the Z score is listed as 1.79.

In the case of `COc1ccc(N2CCN(C(=O)C(C)C)[C@@H](C)C2=O)cc1`, the “% Inhibition” value is reported as -7% and the Z score is given as 1.21.

Take `CCc1cc(N2CCc3[nH]nc(C(=O)N(C)C)c3C2)n2nccc2n1`: the “% Inhibition” value is on record as -2% and the Z score stood at 0.34.

Consider `CCCn1cnnc1CN(C)Cc1nc(C)c(C)s1`, for which the “% Inhibition” value is -10% and the Z score amounted to 1.73.

As for `COC[C@@H]1CN(Cc2ccccc2F)C[C@H]1c1nc(C2CC2)no1`, the “% Inhibition” value is listed as -2% and the Z score was determined as 0.29.

Regarding `O=C(NCc1ccc(Cl)cc1)N1C2CCC1CC(Oc1cccnc1)C2` (stereo unspecified), the “% Inhibition” value is on record as -16% and the Z score turned out to be 1.85.

As to `Cc1c(C)n(C2CCCC2)c2ncnc(N3CCC[C@H](C(N)=O)C3)c12`, the “% Inhibition” value is listed as -15% and the Z score is on record as 2.16.

Regarding `C[C@@H](c1nc(C(C)(C)C)no1)N1CCN(C(c2ccccc2)c2ccccc2)CC1`, the “% Inhibition” value is on record as -18% and the Z score came to 1.54.

With `Cc1cnc(C)c(N2C[C@@H]3OC(=O)N(CCc4ccc(F)cc4)[C@@H]3C2)n1`, the “% Inhibition” value is -3% and the Z score is reported as 0.52.

With `CCOC(=O)c1cn(Cc2ccc(C)cc2)c2nc(C)ccc2c1=O`, the “% Inhibition” value is on record as -8% and the Z score amounted to 1.

With `Cc1cc(CON=C(N)c2ccc(CN3CCOCC3)cc2)on1`, the “% Inhibition” value is -7% and the Z score is 0.74.

Regarding `Cc1[nH]c2ccc(C(=O)OCC(=O)Nc3c(C)n(C)n(-c4ccccc4)c3=O)cc2c1C`, the “% Inhibition” value is recorded as -2% and the Z score is 0.3.

With `Cn1cc([C@@H]2CCCN2S(=O)(=O)Cc2cc(C#N)ccc2F)cn1`, the “% Inhibition” value is on record as -12% and the Z score came to 2.27.

Take `O=C1CCCN1CCN1C[C@H]2C[C@H](c3ccccc3)CC[C@@]2(C(=O)O)C1`: the “% Inhibition” value is given as -7% and the Z score was 0.82.

Consider `Cc1ccc(C(=O)NCc2ccc(Cl)cc2)cc1-n1nnc2cccnc21`, for which the “% Inhibition” value was -7% and the Z score stood at 1.32.

Regarding `Cc1nc(-c2ccc(-c3noc(Cc4c[nH]c5ccccc45)n3)cc2)cs1`, the “% Inhibition” value is given as -14% and the Z score is listed as 2.3.

As for `COC(=O)CNC(=O)CCOc1ccc(C)cc1C`, the “% Inhibition” value is recorded as -7% and the Z score was 1.1.

As for `Cc1cc(O)c(C(=O)NC[C@@H](c2sccc2C)N(C)C)cn1`, the “% Inhibition” value is -7% and the Z score is given as 0.64.

As to `O=C(Nc1cccc2nonc12)c1c(F)cccc1F`, the “% Inhibition” value is -39% and the Z score turned out to be 4.63.

With `CN(C(=O)c1ccncc1)c1ccc(CNc2ccccn2)cc1`, the “% Inhibition” value was -3% and the Z score is reported as 0.46.

Regarding `O=C1COC2CCN(C(=O)Cc3ccc(Cl)c(Cl)c3)CC2N1` (stereo unspecified), the “% Inhibition” value was -16% and the Z score was 2.28.

As to `CCc1nsc(NC2CCC(=O)NC2C2CC2)n1` (stereo unspecified), the “% Inhibition” value stood at 11% and the Z score was -1.24.

With `Cc1ccc(CN(C)c2cc(N3CCOCC3)ncn2)cc1C`, the “% Inhibition” value turned out to be 3% and the Z score was -0.65.

In the case of `O=C(CNc1ccc(F)c(F)c1F)NCc1ccc(F)cc1`, the “% Inhibition” value is on record as -6% and the Z score was found to be 1.15.

As to `COc1nc(C)cc(C)c1COc1ccc2c(c1)CCNC2=O`, the “% Inhibition” value is -3% and the Z score amounted to 0.51.

For the molecule `O=S(=O)(N[C@@H]1C[C@H](Cn2cc(C3CC3)nn2)[C@@H](O)[C@H]1O)c1ccccc1`, the “% Inhibition” value stood at 2% and the Z score is listed as -0.34.

Consider `CN(Cc1cscn1)C(=O)NCc1cnn(CC(F)(F)F)c1`, for which the “% Inhibition” value is reported as -16% and the Z score was 2.93.

`COc1ncc(Cl)c(N2CC(C)OC3(CCCOC3)C2)n1` (stereo unspecified): the “% Inhibition” value was -8% and the Z score was 1.22.

With `N#CCC(=O)c1c(Cl)cccc1Cl`, the “% Inhibition” value is reported as -4% and the Z score was determined as 0.71.

On to `O=S(=O)(c1cc(-c2nnc(C3CCC3)o2)co1)N1CCC(N2CCCCC2)CC1`, for which the “% Inhibition” value is reported as -7% and the Z score is 0.98.

Consider `CC(C)OC[C@@H](O)CN1CCN(c2ccc(NC(=O)c3ccccc3)cn2)CC1`, for which the “% Inhibition” value is -13% and the Z score amounted to 2.27.
